{"source": "PubChem BioAssay AID493170", "about": "(National Center for Advancing Translational Sciences (NCATS), 2011)", "note": "Inconclusive means that the source gave no clear call. Such entries were picked first, then a sample of the others. No potency is given beside an inconclusive call; the fits are too rough. Activity calls are given as the source filed them. Calls follow the shape of the dose curve; as a rule, active = well fitted inhibition curve with a large enough effect; inconclusive = small, poorly fitted or top-dose-only effect, or effect the other way; inactive = flat fitted curve, though single readings scatter. Potency is read from the fitted curve at half-maximal effect; tags tell the direction and shape of the fitted curve."}
{"biological_target": "Ubiquitin carboxyl-terminal hydrolase 2 (Homo sapiens) (UniProt O75604)", "sequence (O75604 whole entry, looked up)": "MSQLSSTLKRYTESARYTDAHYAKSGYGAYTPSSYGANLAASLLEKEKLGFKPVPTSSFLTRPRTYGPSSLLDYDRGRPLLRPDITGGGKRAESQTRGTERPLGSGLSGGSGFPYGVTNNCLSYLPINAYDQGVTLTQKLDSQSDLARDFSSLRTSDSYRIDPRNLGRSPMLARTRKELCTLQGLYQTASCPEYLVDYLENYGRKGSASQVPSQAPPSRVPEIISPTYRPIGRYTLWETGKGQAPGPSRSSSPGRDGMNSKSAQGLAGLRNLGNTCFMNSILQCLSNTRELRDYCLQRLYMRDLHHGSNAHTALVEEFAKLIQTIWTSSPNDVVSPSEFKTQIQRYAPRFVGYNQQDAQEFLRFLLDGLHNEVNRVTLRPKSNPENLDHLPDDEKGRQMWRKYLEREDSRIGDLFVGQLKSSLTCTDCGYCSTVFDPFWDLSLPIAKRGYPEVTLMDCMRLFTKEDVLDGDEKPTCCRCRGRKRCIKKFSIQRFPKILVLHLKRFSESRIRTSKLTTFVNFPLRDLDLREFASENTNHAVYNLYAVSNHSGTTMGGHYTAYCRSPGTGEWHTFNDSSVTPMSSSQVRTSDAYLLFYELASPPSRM", "assay": "Ub-rhodamine 110 based assay for inhibitors Ubiquitin-specific Protease USP2a; also: nearly all actives have a fitted effect of over 50% in size", "conditions": "USP2a Ub-rhodamine110 cleavage, fluorescence; series mostly up to 38.3 µM", "summary_of_the_method": "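5 nM USP2a preincubated with compounds for 30 min at RT in 20 mM Tris-HCl pH 8.0, 2 mM CaCl2, 2 mM beta-mercaptoethanol, 0.05% CHAPS. Cleavage of 150 nM Ub-rhodamine 110 read kinetically (Ex 485/Em 531) for 7 min.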"}
{"compound": "COc1ccc(-c2csc(Nc3ccc(S(=O)(=O)Nc4cc(OC)nc(OC)n4)cc3)n2)cc1", "Potency": "inconclusive [inhibitor, partial curve, poor fit]"}
{"compound": "COc1ccc(-c2nc3cc(NC(=O)Cc4ccc(OC)c(OC)c4)ccc3o2)cc1", "Potency": "inactive"}
{"compound": "CC(C)Oc1ccc(C(=O)Nc2ccc(N3CCCC3)cc2)cc1", "Potency": "active: 10 µM"}
{"compound": "O=C(/C=N/O)NCc1cccnc1", "Potency": "inactive"}
{"compound": "CC(C)c1ccc2c(c1)c(SC(C)(C)C)c(CC(C)(C)C(=O)O)n2Cc1ccc(Cl)cc1", "Potency": "active: 7.08 µM"}
{"compound": "Cc1ccc(O)c(CC(C)C)n1", "Potency": "inactive"}
{"compound": "Nc1c(C(=O)NC2CC2)sc2nc3c(c(-c4ccco4)c12)CC/C3=C/c1ccco1", "Potency": "inconclusive [inhibitor, full curve, poor fit]"}
{"compound": "Cc1ccc(N(CC(=O)N/N=C/c2ccco2)S(=O)(=O)c2ccccc2)cc1", "Potency": "inconclusive [inhibitor, single point]"}
{"compound": "CC(C)(C)CC(C)(C)c1ccc(OCCOCC[N+](C)(C)Cc2ccccc2)cc1", "Potency": "inactive"}
{"compound": "O=S(=O)(Nc1cccc(-c2cn3c(n2)SCC3)c1)c1ccc(F)cc1F", "Potency": "inconclusive [inhibitor, single point]"}
{"compound": "CCOC(=O)c1ccc(NC(=O)C2=C(C)Nc3nc(CCCO)nn3C2c2cccc(C)c2)cc1", "note": "(centres undefined)", "Potency": "inactive"}
{"compound": "O=C(NCCOC(=O)c1ccccc1C(=O)OCCNC(=O)c1cccnc1)c1cccnc1", "Potency": "inactive"}
{"compound": "CCOC(=O)CCCNC(=O)COC(=O)c1cccc(C)c1O", "Potency": "inconclusive [activator, single point]"}
{"compound": "CCc1sc(/C=C(/C#N)C(N)=S)cc1[N+](=O)[O-]", "Potency": "inconclusive [inhibitor, single point]"}
{"compound": "O=c1/c(=C/c2ccco2)sc2n1CN(c1cccc(Br)c1)CN=2", "Potency": "inconclusive [inhibitor, partial curve, poor fit]"}
{"compound": "COc1ccccc1NC(=O)CSc1nc(O)cc(=O)n1-c1ccccc1OC", "Potency": "inconclusive [inhibitor, single point]"}
{"compound": "O=C(Nc1ccc(N2CCCC2)cc1)c1cccc(-c2cc3ccccc3oc2=O)c1", "Potency": "inconclusive [inhibitor, full curve, poor fit]"}
{"compound": "CCOC(=O)C1CCCN(C(=O)c2cc(-c3ccco3)nc3ccccc23)C1", "note": "(centres undefined)", "Potency": "active: 4.47 µM"}
{"compound": "O=C(O)CN1C(=O)/C(=C/c2ccc(SCc3ccccc3)o2)SC1=S", "Potency": "inconclusive [inhibitor, single point]"}
{"compound": "Cc1ccc(/C=N/NC(=O)c2cc(-c3ccc(C)o3)[nH]n2)cc1", "Potency": "inconclusive [inhibitor, single point]"}
{"compound": "NS(=O)(=O)c1cc(C(=O)NC2CCSc3ccccc32)ccc1Cl", "note": "(centres undefined)", "Potency": "inconclusive [inhibitor, full curve, poor fit]"}
{"compound": "Cc1ccc(/C(N)=N/OC(=O)Oc2ccccc2)cc1", "Potency": "inactive"}
{"compound": "CCO[C@H]1OC(C(=O)N2CCCCCCC2)=C[C@@H](c2ccc(C(F)(F)F)cc2)[C@@H]1CCCO", "Potency": "inactive"}
{"compound": "CC1=NC(C(F)(F)F)(C(F)(F)F)C2=C(CC(C)(C)CC2=O)N1Cc1ccco1", "Potency": "inconclusive [activator, single point]"}
{"compound": "Cc1ccc(SCC(=O)Nc2ccc(C(=O)Nc3ccc(O)cc3)cc2)cc1", "Potency": "inconclusive [inhibitor, partial curve, poor fit]"}
{"compound": "Cn1c(=O)c(C(=O)Nc2ccccc2S(N)(=O)=O)c(O)c2ccccc21", "Potency": "inconclusive [inhibitor, partial curve, poor fit]"}
{"compound": "O=C(Nc1nnc(-c2ccco2)s1)C1CCCCC1", "Potency": "inconclusive [inhibitor, single point]"}
{"compound": "CCNC1=C(Cl)C(=O)c2ccccc2C1=O", "Potency": "inactive"}
{"compound": "O=C1CC(=O)N(Cc2ccco2)C(=S)N1", "Potency": "inconclusive [inhibitor, partial curve, poor fit]"}
{"compound": "Cc1ccc(C)n1NC(=O)c1ccccc1O", "Potency": "inconclusive [inhibitor, single point]"}
{"compound": "COc1ccc(/C=C2\\SC(=O)N(CCC(=O)Nc3ccc(S(=O)(=O)Nc4nccs4)cc3)C2=O)cc1", "Potency": "active: 10 µM"}
{"compound": "O=C(N/N=C1\\CC(c2ccccc2)Oc2ccccc21)c1ccc(O)cc1", "note": "(centres undefined)", "Potency": "inactive"}
{"compound": "Nc1c(C(=O)Nc2ccc(Cl)cc2)oc2ccccc12", "Potency": "inactive"}
{"compound": "Cc1ccc(S(=O)(=O)N2[C@@H](c3ccc(C(C)(C)C)cc3)C(C(=O)O)=CC[C@H]2c2ccc(Cl)cc2)cc1", "Potency": "inconclusive [inhibitor, partial curve, poor fit]"}
